The whole screen tested about 45,000 compounds, of which about 65 (0.1%) were called active. Calls come from the whole dose curve; as a rule, active = well fitted activation curve with a large enough effect; inconclusive = small, poorly fitted or top-dose-only effect; inactive = no such curve, though single readings can be large or run the other way. Some of the results follow.
target: Galactocerebrosidase (Homo sapiens) (UniProt P54803); test: A Novel Cell-Based Assay to Identify Small Molecules for B -Galactocerebrosidase; settings: 145M-Twi-hGALC-G270D cells (Twitcher mouse brain line with human GALC G270D), HMU-beta-Gal fluorescence, 48 h; series mostly up to 57.5 µM; activation: at the top concentration; note: 0% is about no effect; nearly all actives have a fitted effect of over 65% in size
Summary of the method: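 Mutant human GALC (G270D), stably expressed in a Twitcher mouse brain cell line lacking endogenous GALC, is measured in live-treated cells via 6-hexadecanoylamino-4-methylumbelliferyl-β-galactoside hydrolysis (0.1 mM final, pH 5.2) with fluorescent detection.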

Chain of UniProt P54803 (P54803 whole entry, looked up): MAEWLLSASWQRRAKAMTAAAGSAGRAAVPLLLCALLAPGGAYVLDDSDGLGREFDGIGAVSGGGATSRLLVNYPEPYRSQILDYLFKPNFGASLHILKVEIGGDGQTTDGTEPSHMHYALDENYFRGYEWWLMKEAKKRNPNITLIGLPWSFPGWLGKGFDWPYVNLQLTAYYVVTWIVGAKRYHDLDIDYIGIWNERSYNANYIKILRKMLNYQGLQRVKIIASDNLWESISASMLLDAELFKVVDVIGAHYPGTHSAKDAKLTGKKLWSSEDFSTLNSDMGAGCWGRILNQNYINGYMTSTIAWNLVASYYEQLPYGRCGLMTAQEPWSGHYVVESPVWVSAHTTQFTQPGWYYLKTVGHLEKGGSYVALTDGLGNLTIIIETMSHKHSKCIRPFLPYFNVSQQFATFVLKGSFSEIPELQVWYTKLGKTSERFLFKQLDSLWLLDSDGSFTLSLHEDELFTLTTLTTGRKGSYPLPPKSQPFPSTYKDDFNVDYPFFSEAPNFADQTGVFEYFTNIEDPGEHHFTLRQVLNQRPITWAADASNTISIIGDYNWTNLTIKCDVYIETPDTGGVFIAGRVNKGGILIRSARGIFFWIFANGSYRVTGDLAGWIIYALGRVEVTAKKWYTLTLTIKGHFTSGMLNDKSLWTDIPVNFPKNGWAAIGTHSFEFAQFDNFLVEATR

activation, inactive:
O=S(=O)(NCCS(=O)(=O)N1CCN(c2ccccc2)CC1)c1ccc(Cl)cc1 -11%, Cc1cccc(NC(=O)C2CCCN(S(=O)(=O)c3ccc4c(c3)oc(=O)n4C)C2)c1 (configuration not stated) -0.402%, Cc1ccc(C)c(S(=O)(=O)NCCc2csc(-c3ccc(Cl)cc3)n2)c1 -21.8%, CC(=O)c1ccc(N2CCN(C(=O)c3cc4ccc5cccnc5c4[nH]3)CC2)cc1 -17.5%, CCn1c(=O)n(-c2cccc(Cl)c2)c(=O)c2sc3ccccc3c21 3.41%, CCc1nn(CC(=O)N2CCN(c3ccc(Cl)cc3)CC2)c(=O)c2cc3occc3n12 -14.5%, O=C(Nc1ccc(Cl)cc1)c1cc2nc(-c3ccc4c(c3)OCO4)cc(C(F)(F)F)n2n1 -18.4%, O=C(c1cnc(N2CCCCC2)c2ccccc12)N1CCN(c2ccc(Cl)cc2)CC1 -0.866%, COc1ccc(C(=O)Nc2ccccc2-c2nc(-c3ccc(OC)cc3)no2)cc1 2.93%, CCOC(=O)c1ccc2c(c1)[C@@H]1C=CC[C@@H]1[C@H](c1cccc(OC)c1OC)N2 -9.3%, Cc1cc(C)c2sc(N(Cc3cccnc3)C(=O)CCOc3ccccc3)nc2c1 -3.98%, CCCC(=O)C1=C(c2cccc(OC)c2)N(C(=O)CCC)n2c(C)nnc2S1 -0.224%, CCCN1C(=O)C(O)(CC(=O)c2ccc(C(C)C)cc2)c2ccccc21 (configuration not stated) -12.6%, COC(=O)c1sc2c(c1C)c(=O)n(-c1ccccc1)c(=O)n2CC(=O)Nc1cccc(C)c1 -0.902%, CCc1ccccc1NS(=O)(=O)c1ccc2c(c1)CCCN2C(=O)C1CCC1 -1.9%, CC(C)NC(=O)c1ccc2c(c1)N(Cc1cccc(Cl)c1)C(=O)c1ccccc1S2=O (configuration not stated) -15.3%, Cc1nn2c(=O)cc(COC(=O)c3ccccc3NC(=O)c3cccs3)nc2s1 -6.95%, COc1ccc(NC(=O)CN2CCN(Cc3ccccc3Cl)S2(=O)=O)cc1Cl -8.65%, COc1cc(OC)c(NC(=O)N2CCC(CN3CCOCC3)CC2)cc1Cl -7.81%, CN1CCN(Cc2c(O)ccc3cc(-c4ccc(Cl)cc4)c(=O)oc23)CC1 -21.3%, CCN(C(=O)Cn1c(=O)oc2cc(S(=O)(=O)N3CCCCC3)ccc21)c1ccccc1 -8.19%, CCc1cccc(NC(=O)CCc2c(C)nc3c(-c4ccccc4)c(C)nn3c2C)c1 -6.24%, O=c1[nH]sc2cc(Cl)ccc12 -11.4%, COc1ccc(N2CCN(C(=O)C3Cc4ccccc4N3C(C)=O)CC2)cc1 (configuration not stated) -15.5%, COc1cccc(CNC(=O)c2c(C)oc3ncnc(N4CCOCC4)c23)c1 0.325%, CCOc1cc(CNC(=O)C2CCN(c3nc4ccccc4[nH]3)CC2)cc(OCC)c1OCC 0.452%, COc1cccc(CC(=O)Nc2ccc(-c3nc4ccccc4s3)cc2Cl)c1 -3.39%

From PubChem BioAssay AID1159614 (National Center for Advancing Translational Sciences (NCATS), 2016)
